# Results: the supplement of paper PMC8821664
# Where a name gives a salt, the structure may show the parent alone. Some of the results follow. Single values are uncertain, as repeats are few or missing.
# System: Beas-2B AQP5-HiBiT reporter cells
# Assay: AQP5-HiBiT luminescence relative to vehicle (ratio to vehicle); higher = higher AQP5-HiBiT protein abundance
# Conditions: 10 µM; 18 h
# 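Further: monoclonal Beas-2B line stably carrying CMV promoter-driven AQP5-HiBiT, 5,000 cells per well in 384-well plates, lytic HiBiT plus LgBiT NanoLuc luminescence, FDA-approved drug library screen.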
row,Structure (SMILES),AQP5-HiBiT luminescence
1,CS(=O)(=O)OCCCCOS(C)(=O)=O [Busulfan],1.29
2,CN(C)c1cc(NC(=O)CNC(C)(C)C)c(O)c2c1C[C@H]1C[C@H]3[C@H](N(C)C)C(O)=C(C(N)=O)C(=O)[C@@]3(O)C(O)=C1C2=O [Tigecycline],0.78
3,Cc1cccc(C)c1OCC(=O)N[C@@H](Cc1ccccc1)[C@@H](O)C[C@H](Cc1ccccc1)NC(=O)[C@H](C(C)C)N1CCCNC1=O [Lopinavir],0.98
4,O.O=[Si]=O.O=[Si]=O.O=[Si]=O.O=[Si]=O.[O]=[Mg].[O]=[Mg].[O]=[Mg],0.71
5,C[N+]1(C)[C@@H]2C[C@@H](OC(=O)C(O)(c3cccs3)c3cccs3)C[C@H]1[C@@H]1O[C@@H]12 [Tiotropium bromide],1.05
6,NCCCC[C@H](N[C@@H](CCc1ccccc1)C(=O)O)C(=O)N1CCC[C@H]1C(=O)O [Lisinopril dihydrate],0.697
7,Cc1[nH]cnc1CN1CCc2c(c3ccccc3n2C)C1=O [Alosetron hydrochloride],1.02
8,Cc1ncc([N+](=O)[O-])n1CCO [Metronidazole],0.905
9,O=C(O)c1cn(C2CC2)c2cc(N3CCNCC3)c(F)cc2c1=O [Ciprofloxacin],1.26
10,CN1[C@@H]2CC[C@H]1C[C@@H](OC(c1ccccc1)c1ccccc1)C2 [Benztropine mesylate],1.08
11,CCOc1ccc(Cc2cc([C@@H]3O[C@H](CO)[C@@H](O)[C@H](O)[C@H]3O)ccc2Cl)cc1 [Dapagliflozin],0.886
12,CCOC(=O)N1CCC(=C2c3ccc(Cl)cc3CCc3cccnc32)CC1 [Loratadine],1.03
13,Cc1nnc(C(=O)NC(C)(C)c2nc(C(=O)NCc3ccc(F)cc3)c(O)c(=O)n2C)o1 [Raltegravir potassium],0.692
14,CNC[C@@H](O)c1ccc(O)c(O)c1 [L-Adrenaline],1.13
15,Cc1cnc(C(=O)NCCc2ccc(S(=O)(=O)NC(=O)NC3CCCCC3)cc2)cn1 [Glipizide],1.09
16,COCCCOc1cc(C[C@@H](C[C@H](N)[C@@H](O)C[C@H](C(=O)NCC(C)(C)C(N)=O)C(C)C)C(C)C)ccc1OC [Aliskiren hemifumarate],0.93
17,N=C(N)NS(=O)(=O)c1ccc(N)cc1 [Sulfaguanidine],0.952

row,Structure (SMILES),AQP5-HiBiT luminescence
1,CC(=O)O[C@]1(C(C)=O)CC[C@H]2[C@@H]3CCC4=CC(=O)CCC4=C3[C@@H](c3ccc(N(C)C)cc3)C[C@@]21C [Ulipristal acetate],0.523
2,C#C[C@]1(O)CC[C@H]2[C@@H]3CCC4=CC(=O)CC[C@@H]4[C@H]3CC[C@@]21CC [Levonorgestrel],0.906
3,CC(=O)OC[C@H]1O[C@@H]([S-])[C@H](OC(C)=O)[C@@H](OC(C)=O)[C@@H]1OC(C)=O.CCP(CC)CC.[Au+] [Auranofin],0.271
4,CC(C)C(=O)Oc1ccc(CO)cc1[C@H](CCN(C(C)C)C(C)C)c1ccccc1 [Fesoterodine fumarate],0.945
5,OCCOCCN1CCN(C2=Nc3ccccc3Sc3ccccc32)CC1 [Quetiapine Fumarate],1.12
6,CCCNCC(O)COc1ccccc1C(=O)CCc1ccccc1 (centres undefined) [Propafenone],1.24
7,CNCC(O)c1ccc(O)c(O)c1 (racemic) [DL-Adrenalin],0.706
8,Cc1ccc(Nc2nccc(N(C)c3ccc4c(C)n(C)nc4c3)n2)cc1S(N)(=O)=O [Pazopanib],0.323
9,C#Cc1cccc(Nc2ncnc3cc(OCCOC)c(OCCOC)cc23)c1 [Erlotinib hydrochloride],0.512
10,CC(C)(S)[C@@H](N)C(=O)O [Artamine],0.823
11,Clc1ccc(CCC(Cn2ccnc2)Sc2c(Cl)cccc2Cl)cc1 (centres undefined) [Butoconazole nitrate],0.887
12,C/C=C(/C(=C/C)c1ccc(O)cc1)c1ccc(O)cc1 [Dienestrol],1.28
13,NS(=O)(=O)c1cc2c(cc1Cl)NC(C(Cl)Cl)NS2(=O)=O (centres undefined) [Trichlormethiazide],0.796
14,CNCCC=C1c2ccccc2CCc2ccccc21 [Nortriptyline hydrochloride],1.22
15,O=C(Nc1c(Cl)cncc1Cl)c1ccc(OC(F)F)c(OCC2CC2)c1 [Roflumilast],0.957
16,CCOC(=O)C(C)(C)Oc1ccc(Cl)cc1 [Clofibrate],0.775
17,CC[C@H]1OC(=O)[C@H](C)[C@@H](O[C@H]2C[C@@](C)(OC)[C@@H](O)[C@H](C)O2)[C@H](C)[C@@H](O[C@@H]2O[C@H](C)C[C@H](N(C)C)[C@H]2O)[C@](C)(O)C[C@@H](C)CN(C)[C@H](C)[C@@H](O)[C@]1(C)O [Azithromycin],1.22
